Experimental data as given in patent US20260078155A1 (NAVIGO PROTEINS, published 2026).

Columns and labels:
[1] = target: T1, FOLR1-Fc (human FOLR1 residues 25-234 fused with the Fc-fragment of human IgG1 followed by a His-tag at the … (human, UniProt P15328 25-234)); experiment: SPR (Biacore), FOLR1 immobilized on CM-5 chip, 1:1 Langmuir fit
T1 construct: range 25-234; Made in Expi293F cells; also called FOLR1-Fc-His; folate receptor alpha; not shown: Fc-fragment of human IgG1; C-terminal His-tag
Experimental: FIG. 2. […] Analysis via label-free interaction assays using SPR (Biacore). FOLR1 was immobilized on a CM-5 chip. The lines show different concentrations: 0, 0.1, 0.3, 0.93, 2.77, 8.3, 25, and 75 nM.
A CM5 sensor chip (GE Healthcare) was equilibrated with SPR running buffer. Surface-exposed carboxylic groups were activated by passing a mixture of EDC and NHS to yield reactive ester groups. 700-1500 RU FOLR1 (on-ligand) were immobilized on a flow cell. A flow cell without ligand was used as reference. Injection of ethanolamine after ligand immobilization was used to block unreacted NHS groups. Upon ligand binding, protein analyte was accumulated on the surface increasing the refractive index. This change in the refractive index was measured in real time and plotted as response or resonance units (RU) versus time. The analytes were applied to the chip in serial dilutions with a flow rate of 30 μl/min. The association was performed for 30 seconds and the dissociation for 60 seconds. After each run, the chip surface was regenerated with 30 μl regeneration buffer and equilibrated with running buffer. The control samples were applied to the matrix with a flow rate of 30 μl/min, while they associate for 60 seconds and dissociate for 120 seconds. Regeneration and re-equilibration were performed as previously mentioned. […]

[2] = target: T1, FOLR1-Fc (human FOLR1 residues 25-234 …); experiment: SPR (Biacore 3000), FOLR1-Fc immobilized on CM5 chip, Langmuir 1:1
Description: A CM5 sensor chip (GE Healthcare) was equilibrated with SPR running buffer. Surface-exposed carboxylic groups were activated by passing a mixture of EDC and NHS to yield reactive ester groups. 700-1500 RU FOLR1 (on-ligand) were immobilized on a flow cell. A flow cell without ligand was used as reference. Injection of ethanolamine after ligand immobilization was used to block unreacted NHS groups. Upon ligand binding, protein analyte was accumulated on the surface increasing the refractive index. This change in the refractive index was measured in real time and plotted as response or resonance units (RU) versus time. The analytes were applied to the chip in serial dilutions with a flow rate of 30 μl/min. The association was performed for 30 seconds and the dissociation for 60 seconds. After each run, the chip surface was regenerated with 30 μl regeneration buffer and equilibrated with running buffer. The control samples were applied to the matrix with a flow rate of 30 μl/min, while they associate for 60 seconds and dissociate for 120 seconds. Regeneration and re-equilibration were performed as previously mentioned. Binding studies were carried out by the use of the Biacore 3000 (GE Healthcare); data evaluation was operated via the BIAevaluation 3.0 software, provided by the manufacturer, by the use of the Langmuir 1:1 model (RI=0).

[3] = target: FOLR2 (folate receptor beta) as used in the SPR assay (UniProt P14207 17-230, limits assumed); experiment: SPR (Biacore), Affilin-199490 on FOLR2 (FOLR-beta) compared with FOLR1 (FOLR-alpha)
[4] = target: T2, FOLR1 on transfected HEK293-FOLR1-cells (human, UniProt P15328 25-234); experiment: flow cytometry on HEK293-FOLR1-cells, 0 h in 100% mouse serum
T2 construct: whole, on cells; also called surface-exposed FOLR1; folate receptor alpha
Experimental: (§1) Flow cytometry was used to analyze the specific interaction of FOLR1 binding proteins with surface-exposed FOLR1 but not with FOLR2. Transfected HEK293-FOLR1-cells, HEK293-FOLR2-cells, and empty vector control HEK293-pEntry-cells were trypsinized and resuspended in medium containing FCS, washed and stained in pre-cooled FACS blocking buffer. A cell concentration of 1×10⁶ cells/ml was prepared for cell staining and 100 μl/well were filled into a 96 well plate (Greiner) in triplicate for each cell line. 50 nM of Affilin proteins or monoclonal anti-human-FOLR1 antibody (clone LK 26; BioLegend, 908301) as positive control or anti-human-FOLR2 antibody (clone EM35; Sysmex, BD029864) were added to FOLR overexpressing and control cells. After 45 min the supernatants were removed, and 100 μl/well rabbit anti-Strep-Tag antibody (GenScript; A00626), 1:300 diluted in FACS blocking buffer, were added. Anti-FOLR1 antibody and anti-FOLR2 antibodies were detected with anti-mouse-IgG-Alexa 488 (Invitrogen; A-10680) with a dilution of 1:1000. After removal of the primary antibody, goat anti-rabbit IgG Alexa Fluor 488 antibody (Invitrogen; A11008) was applied in a 1:1000 dilution. Flow cytometry measurement was conducted on the Guava easyCyte 5HT device (Merck-Millipore) at excitation wavelength 488 nm and emission wavelength 520 nm.
(§2) The stability of FOLR1 binding proteins in the presence of serum was analyzed. […] 100 μl Affilin-serum solution was used to analyze the serum stability on HEK293-FOLR1-cells by FACS as described above (example 6). FACS analysis confirmed the binding of Affilin proteins to FOLR1 even after 24 h incubation in mouse serum (see Table 5). Further FOLR1 proteins were tested (results not shown) and binding to FOLR1 was confirmed even in the presence of serum.

[5] = target: T2, FOLR1 on transfected HEK293-FOLR1-cells; experiment: flow cytometry on HEK293-FOLR1-cells; EC50 after 24 h in mouse serum against 0 h
Experimental: as §1, §2

[6] = target: T2, FOLR1 on transfected HEK293-FOLR1-cells; experiment: flow cytometry on HEK293-FOLR1-cells, after 24 h in 100% mouse serum at 37 C
Experimental: as §1, §2

[7] = target: T1, FOLR1-Fc (human FOLR1 residues 25-234 …); experiment: ELISA on immobilized FOLR1-Fc, after 24 h in 100% mouse serum at 37 C
Experimental: (§3) High binding plates (Greiner, 781061) were immobilized with 0.1-2.5 μg/ml FOLR1-Fc over night at 4° C. Dilution series of 197556a (SEQ ID NO: 1 with C-terminal sequence […]), 202521 (SEQ ID NO: 30 with C-terminal coupling sequence “SAC”; see SEQ ID NO: 44) and 202521-Dota-Lu (SEQ ID NO: 30 with C-terminal coupling sequence “SAC” and Dota labeled with Lutetium Lu³⁺) were incubated in 100% mouse serum overnight at 37° C. ELISA-plates were washed with 1×PBS and blocked with 3% BSA/0.5% Tween/PBS 2 h at RT. Dilution series after 0 h or 24 h incubation in the presence of serum were incubated on ELISA-plates 1 h at rt. After washing with PBST, wells were incubated with biotinylated anti-ubiquitin-antibody (1:1000) 1 h at rt. The binding was visualized with Streptavidin-HRP (1:10.000).

[8] = target: T1, FOLR1-Fc (human FOLR1 residues 25-234 …); experiment: ELISA on immobilized FOLR1-Fc; Kd after 24 h in mouse serum against 0 h
Experimental: as §3

[9] = target: T1, FOLR1-Fc (human FOLR1 residues 25-234 …); experiment: ELISA on immobilized FOLR1-Fc, 0 h in 100% mouse serum; 0 h in mouse serum
Experimental: as §3

T2 sequence (P15328 25-234): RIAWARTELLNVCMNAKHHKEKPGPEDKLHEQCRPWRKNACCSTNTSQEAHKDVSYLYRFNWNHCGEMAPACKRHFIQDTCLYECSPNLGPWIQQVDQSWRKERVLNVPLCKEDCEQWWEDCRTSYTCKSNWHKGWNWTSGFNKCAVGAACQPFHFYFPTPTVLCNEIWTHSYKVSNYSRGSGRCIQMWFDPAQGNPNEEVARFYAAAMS
UniProt P14207, sequence (P14207 17-230 limits assumed): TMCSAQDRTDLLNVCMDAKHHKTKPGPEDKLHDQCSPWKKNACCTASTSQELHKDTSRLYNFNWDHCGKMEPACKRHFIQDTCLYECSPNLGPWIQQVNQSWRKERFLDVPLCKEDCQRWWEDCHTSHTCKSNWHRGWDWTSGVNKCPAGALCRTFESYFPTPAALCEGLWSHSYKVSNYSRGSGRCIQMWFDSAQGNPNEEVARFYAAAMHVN

B1: Affilin-199490 (designed binder)
chain: MQIFVKTLEEKYIALEVEPSDTIENVKAKVQDKEGIPPDQQELLWYGEQLEDGRTLSDYNILGGAVLKLQLRLRAAGGSGGGSGGGSGGGSGMQIFVKTLEEKYIALEVEPSDTIENVKAKVQDKEGIPPDQQELLWYGEQLEDGRTLSDYNILGGAVLKLQLRLRAA
notes: also called homodimer of Affilin-197556b
[1]
  Kd: < 0.5 nM
[2]
  Kd: 0.119 nM
[3]
  binding result: no binding
[4]
  EC50: 0.43 nM
[5]
  Decrease (fold): 1.1 fold
[6]
  EC50: 0.47 nM

B2: Affilin-197556a (designed binder)
chain: MQIFVKTLEEKYIALEVEPCDTIENVKAKVQDKEGIPPDQQELLWYGEQLEDGRTLSDYNILGGAVLKLQLRLRAASAWSHPQFEK
notes: Ubiquitin mutein; The flow cytometry assays detect with an anti-Strep-Tag antibody
[7]
  Kd: 0.041 nM
[8]
  Decrease (fold): 1.2 fold
[2]
  Kd: 0.411 nM
[4]
  EC50: 0.4 nM
[9]
  Kd: 0.035 nM
[5]
  Decrease (fold): 1 fold
[6]
  EC50: 0.4 nM
